Results: paper PMC12820563
The list shows a part of the results. The list includes weakly bound sequences.

Molecular target: T1, MBP-FoxP3dN (UniProt Q99JB6)
T1 sequence: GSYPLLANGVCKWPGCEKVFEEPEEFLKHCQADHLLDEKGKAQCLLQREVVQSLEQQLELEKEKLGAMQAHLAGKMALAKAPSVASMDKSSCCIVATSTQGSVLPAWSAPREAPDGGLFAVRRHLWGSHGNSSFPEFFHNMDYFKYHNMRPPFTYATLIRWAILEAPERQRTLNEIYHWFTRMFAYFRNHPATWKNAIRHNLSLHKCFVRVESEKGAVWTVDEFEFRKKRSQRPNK
Experiment: PD-seq (MBP pull-down with sequencing)
Conditions: 20 mM Tris-HCl pH 7.5, 100 mM NaCl, 1.5 mM MgCl2, 0.4 uM protein, 0.1 uM dsDNA library, 30 min, room temperature, amylose pull-down; high values mean tight binding; double strand, one strand shown

Row | Sequence | binding signal (RPM ratio (pull-down/input))
1 | GATGATTGTTCTCCCAGCTGATGAATTAGCCAGGTCGAGTAAACAAATTTTCCTAATCTTTCTGTTCAAGCGCCATCTAC | 0.222
2 | GATGATTGTTCTCCCAGCTGATGAATTGGTGATTTCGAGTAAACAAATTTTCCTAATCTTTCTGTTCAAGCGCCATCTAC | 1.23
3 | GATGATTGTTCTCCCAGCTGATGAATTGGTCAGATCGAGTAAACAAATTTTCCTAATCTTTCTGTTCAAGCGCCATCTAC | 0.224
4 | GATGATTGTTCTCCCAGCTGATGAATTTATTGACTCGAGTAAACAAATTTTCCTAATCTTTCTGTTCAAGCGCCATCTAC | 5.75
5 | GATGATTGTTCTCCCAGCTGATGAATTAACGTTCTCGAGTAAACAAATTTTCCTAATCTTTCTGTTCAAGCGCCATCTAC | 0.551
6 | GATGATTGTTCTCCCAGCTGATGAATTTCAGGTGTCGAGTAAACAAATTTTCCTAATCTTTCTGTTCAAGCGCCATCTAC | 0.589
7 | GATGATTGTTCTCCCAGCTGATGAATTTATGTTCTCGAGTAAACAAATTTTCCTAATCTTTCTGTTCAAGCGCCATCTAC | 4.5
8 | GATGATTGTTCTCCCAGCTGATGAATTGTTATACTCGAGTAAACAAATTTTCCTAATCTTTCTGTTCAAGCGCCATCTAC | 1.21
9 | GATGATTGTTCTCCCAGCTGATGAATTAAGTGTATCGAGTAAACAAATTTTCCTAATCTTTCTGTTCAAGCGCCATCTAC | 2.15
10 | GATGATTGTTCTCCCAGCTGATGAATTGTGCCTATCGAGTAAACAAATTTTCCTAATCTTTCTGTTCAAGCGCCATCTAC | 3.46
11 | GATGATTGTTCTCCCAGCTGATGAATTCTTTATTTCGAGTAAACAAATTTTCCTAATCTTTCTGTTCAAGCGCCATCTAC | 0.422
12 | GATGATTGTTCTCCCAGCTGATGAATTAGATAGCTCGAGTAAACAAATTTTCCTAATCTTTCTGTTCAAGCGCCATCTAC | 0.537
13 | GATGATTGTTCTCCCAGCTGATGAATTACTGGAGTCGAGTAAACAAATTTTCCTAATCTTTCTGTTCAAGCGCCATCTAC | 0.212
14 | GATGATTGTTCTCCCAGCTGATGAATTAAACCACTCGAGTAAACAAATTTTCCTAATCTTTCTGTTCAAGCGCCATCTAC | 0.506
15 | GATGATTGTTCTCCCAGCTGATGAATTCCAGAGTTCGAGTAAACAAATTTTCCTAATCTTTCTGTTCAAGCGCCATCTAC | 0.346
16 | GATGATTGTTCTCCCAGCTGATGAATTCGTGGAGTCGAGTAAACAAATTTTCCTAATCTTTCTGTTCAAGCGCCATCTAC | 0.345

Row | Sequence | binding signal (RPM ratio (pull-down/input))
17 | GATGATTGTTCTCCCAGCTGATGAATTATTCAAATCGAGTAAACAAATTTTCCTAATCTTTCTGTTCAAGCGCCATCTAC | 0.376
18 | GATGATTGTTCTCCCAGCTGATGAATTCTACAAATCGAGTAAACAAATTTTCCTAATCTTTCTGTTCAAGCGCCATCTAC | 0.261
19 | GATGATTGTTCTCCCAGCTGATGAATTCCGTGAGTCGAGTAAACAAATTTTCCTAATCTTTCTGTTCAAGCGCCATCTAC | 0.472
20 | GATGATTGTTCTCCCAGCTGATGAATTCCTTTCATCGAGTAAACAAATTTTCCTAATCTTTCTGTTCAAGCGCCATCTAC | 0.303
21 | GATGATTGTTCTCCCAGCTGATGAATTACCGATATCGAGTAAACAAATTTTCCTAATCTTTCTGTTCAAGCGCCATCTAC | 0.441
22 | GATGATTGTTCTCCCAGCTGATGAATTTGAGAGCTCGAGTAAACAAATTTTCCTAATCTTTCTGTTCAAGCGCCATCTAC | 0.258
23 | GATGATTGTTCTCCCAGCTGATGAATTTATAATTTCGAGTAAACAAATTTTCCTAATCTTTCTGTTCAAGCGCCATCTAC | 0.716
24 | GATGATTGTTCTCCCAGCTGATGAATTCTGTAAGTCGAGTAAACAAATTTTCCTAATCTTTCTGTTCAAGCGCCATCTAC | 0.91
25 | GATGATTGTTCTCCCAGCTGATGAATTCGGTAGTTCGAGTAAACAAATTTTCCTAATCTTTCTGTTCAAGCGCCATCTAC | 1.15
26 | GATGATTGTTCTCCCAGCTGATGAATTATCACGGTCGAGTAAACAAATTTTCCTAATCTTTCTGTTCAAGCGCCATCTAC | 0.289
27 | GATGATTGTTCTCCCAGCTGATGAATTGATGAACTCGAGTAAACAAATTTTCCTAATCTTTCTGTTCAAGCGCCATCTAC | 0.317
28 | GATGATTGTTCTCCCAGCTGATGAATTTGACTTATCGAGTAAACAAATTTTCCTAATCTTTCTGTTCAAGCGCCATCTAC | 0.798
29 | GATGATTGTTCTCCCAGCTGATGAATTACCCCTTTCGAGTAAACAAATTTTCCTAATCTTTCTGTTCAAGCGCCATCTAC | 0.31
30 | GATGATTGTTCTCCCAGCTGATGAATTTAATCTATCGAGTAAACAAATTTTCCTAATCTTTCTGTTCAAGCGCCATCTAC | 0.474
31 | GATGATTGTTCTCCCAGCTGATGAATTGCACTTTTCGAGTAAACAAATTTTCCTAATCTTTCTGTTCAAGCGCCATCTAC | 1.32
